In patent US20170081412A1 (MITSUBISHI TANABE PHARMA, published 2017):
Read-outs that look alike come from different tables or passages of the source.

What was measured:
[1] = target: T1, recombinant human IL-6R (human, UniProt P08887 20-365); assay: SPR (representative sensorgram with fit): antibody captured on an amine-coupled anti-human antibody (GLM chip), recombinant human IL-6R flowed as analyte
T1 construct: The sandwich ELISA used a His-tagged form; also called soluble IL-6R; His-tagged human IL-6R
T1 sequence: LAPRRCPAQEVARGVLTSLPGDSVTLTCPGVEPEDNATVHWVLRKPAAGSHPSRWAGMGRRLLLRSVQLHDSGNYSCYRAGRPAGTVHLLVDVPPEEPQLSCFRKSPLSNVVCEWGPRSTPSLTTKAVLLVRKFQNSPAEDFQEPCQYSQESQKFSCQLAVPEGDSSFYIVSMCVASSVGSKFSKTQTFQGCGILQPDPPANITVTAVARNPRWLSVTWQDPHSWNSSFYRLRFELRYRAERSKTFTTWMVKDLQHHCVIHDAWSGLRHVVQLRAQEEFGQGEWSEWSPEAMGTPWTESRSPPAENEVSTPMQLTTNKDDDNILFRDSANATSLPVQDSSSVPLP
From the text: (§1) To determine the affinity and kinetic parameters of FynomAb binding to human IL-17A and human IL-6R, an anti-human antibody was amine coupled to a GLM chip.

[2] = target: T2, recombinant human IL-17A (human, UniProt Q16552 24-155, limits assumed); assay: cell-based or functional assay
[3] = target: T2, recombinant human IL-17A; assay: SPR, binder captured by anti-human antibody on GLM chip, IL-17A as analyte; average of 2 experiments
T2 sequence (Q16552 24-155 limits assumed): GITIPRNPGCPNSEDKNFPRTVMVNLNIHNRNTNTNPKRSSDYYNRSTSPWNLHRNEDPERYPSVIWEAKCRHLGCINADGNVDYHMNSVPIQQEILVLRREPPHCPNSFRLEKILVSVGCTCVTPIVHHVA
From the text: as §1

[4] = target: T1, recombinant human IL-6R; assay: SPR, binder captured by anti-human antibody on GLM chip, IL-6R as analyte; average of 2 experiments; column head prints nM, value taken as M
From the text: as §1

[5] = target: T3, human IL-6R on the surface of HEK Blue IL-6 cells (human, UniProt P08887 20-468); assay: flow cytometry: HEK-Blue IL-6 cells (IL-6R+), drug titrated about 0.005-300 nM, detected with anti-human IgG-Alexa488
T3 construct: HEK Blue IL-6 cells (Invivogen); also called cell surface IL-6R; HEK-Blue-IL6 cells (IL6R+)
T3 sequence: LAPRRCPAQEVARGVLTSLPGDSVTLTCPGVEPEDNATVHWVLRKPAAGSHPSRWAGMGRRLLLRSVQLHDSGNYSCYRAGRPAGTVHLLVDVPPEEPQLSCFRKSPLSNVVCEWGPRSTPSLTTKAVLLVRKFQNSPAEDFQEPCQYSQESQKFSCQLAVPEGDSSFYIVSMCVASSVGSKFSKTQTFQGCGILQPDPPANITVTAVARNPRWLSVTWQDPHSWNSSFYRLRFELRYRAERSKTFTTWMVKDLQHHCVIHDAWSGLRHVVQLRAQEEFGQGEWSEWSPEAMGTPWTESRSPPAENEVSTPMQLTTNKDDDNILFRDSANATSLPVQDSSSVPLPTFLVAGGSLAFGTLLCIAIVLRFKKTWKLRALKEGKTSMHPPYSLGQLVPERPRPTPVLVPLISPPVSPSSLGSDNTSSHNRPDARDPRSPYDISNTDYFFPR

[6] = target: T2, recombinant human IL-17A; assay: SPR (representative sensorgram with fit): antibody captured on an amine-coupled anti-human antibody (GLM chip), recombinant human IL-17A flowed as analyte
From the text: as §1

[7] = target: T1, recombinant human IL-6R; assay: SPR, binder captured by anti-human antibody on GLM chip, IL-6R as analyte; average of 2 experiments
From the text: as §1

[8] = target: T2, recombinant human IL-17A; assay: SPR, binder captured by anti-human antibody on GLM chip, IL-17A as analyte; average of 2 experiments; column head prints nM, value taken as M
From the text: as §1

[9] = target: T3, human IL-6R on the surface of HEK Blue …; assay: flow cytometry, simultaneous binding: drug titrated on HEK-Blue IL-6 cells (IL-6R+), cell-bound drug detected with biotinylated IL-17A and streptavidin-APC
[10] = target: T2, recombinant human IL-17A; assay: dual-binding sandwich ELISA: human IL-17A coated, FynomAb titrated 50-0.0032 nM in PBS (day 0), His-tagged human IL-6R added, anti-His-HRP
[11] = target: T2, recombinant human IL-17A; assay: as above; remark: listed apart in the source
[12] = target: T1, recombinant human IL-6R; assay: SPR, binder captured by anti-human antibody on GLM chip, IL-6R as analyte; average of 4 experiments; column head prints nM, value taken as M
From the text: as §1

[13] = target: T2, recombinant human IL-17A; assay: SPR, binder captured by anti-human antibody on GLM chip, IL-17A as analyte; average of 5 experiments; column head prints nM, value taken as M
From the text: as §1

[14] = target: T2, recombinant human IL-17A; assay: SPR, binder captured by anti-human antibody on GLM chip, IL-17A as analyte; average of 5 experiments
From the text: as §1

[15] = target: T1, recombinant human IL-6R; assay: SPR, binder captured by anti-human antibody on GLM chip, IL-6R as analyte; average of 4 experiments
From the text: as §1

B1: COVA807 (bispecific antibody, human IgG1, kappa)
heavy: QVQLQESGPGLVRPSQTLSLTCTVSGYSITSDHAWSWVRQPPGRGLEWIGYISYSGITTYNPSLKSRVTMLRDTSKNQFSLRLSSVTAADTAVYYCARSLARTTAMDYWGQGSLVTVSSASTKGPSVFPLAPSSKSTSGGTAALGCLVKDYFPEPVTVSWNSGALTSGVHTFPAVLQSSGLYSLSSVVTVPSSSLGTQTYICNVNHKPSNTKVDKKV[sequence of human IgG1 Fc omitted]GGGSGGGGSGGGGSGVTLFVALYDYSSRGVLDLSFHKGEKFQILSTHEYEDWWEARSLTTGETGYIPSNYVAPVDSIQ
light: DIQMTQSPSSLSASVGDRVTITCRASQDISSYLNWYQQKPGKAPKLLIYYTSRLHSGVPSRFSGSGSGTDFTFTISSLQPEDIATYYCQQGNTLPYTFGQGTKVEIKRTVAAPSVFIFPPSDEQLKSGTASVVCLLNNFYPREAKVQWKVDNALQSGNSQESVTEQDSKDSTYSLSSTLTLSKADYEKHKVYACEVTHQGLSSPVTKSFNRGEC
notes: made in CHO cells; also called 807 in-house
Binder B1 has a Kd [1] of 0.415 nM, a koff [1] of 0.000197 s⁻¹ and a kon [1] of 476000 M⁻¹ s⁻¹. The “LogIC50, IL-17A-induced GROα release by HT-29 cells, FIG. 8D (stable CHO pool, mouse PK lot)” value [2] was 0.644, the koff [3] was 9.66e-05 s⁻¹ and the kon [3] was 4.34e+06 M⁻¹ s⁻¹. For the same binder, the Kd [4] was 0.307 nM, the “EC50 (read off the curve)” value [5] was roughly 1 nM and the Kd [6] was 0.0223 nM. For the same binder, the koff [6] was 0.000108 s⁻¹, the kon [6] was 4.84e+06 M⁻¹ s⁻¹ and the koff [7] was 0.000189 s⁻¹. The kon [7] was 692000 M⁻¹ s⁻¹, the Kd [8] was 0.0223 nM and the “EC50 (read off the curve)” value [9] was roughly 1 nM. The “EC50 (read off the curve)” value [10] was roughly 2 nM.

B2: COVA808 (bispecific antibody, human IgG1, kappa)
heavy: QVQLQESGPGLVRPSQTLSLTCTVSGYSITSDHAWSWVRQPPGRGLEWIGYISYSGITTYNPSLKSRVTMLRDTSKNQFSLRLSSVTAADTAVYYCARSLARTTAMDYWGQGSLVTVSS[sequence of human IgG1 constant region omitted]
light: DIQMTQSPSSLSASVGDRVTITCRASQDISSYLNWYQQKPGKAPKLLIYYTSRLHSGVPSRFSGSGSGTDFTFTISSLQPEDIATYYCQQGNTLPYTFGQGTKVEIKRTVAAPSVFIFPPSDEQLKSGTASVVCLLNNFYPREAKVQWKVDNALQSGNSQESVTEQDSKDSTYSLSSTLTLSKADYEKHKVYACEVTHQGLSSPVTKSFNRGECGGGGSGGGGSGGGGSGVTLFVALYDYSSRGVLDLSFHKGEKFQILSTHEYEDWWEARSLTTGETGYIPSNYVAPVDSIQ
notes: made in CHO cells
In the case of B2, the “EC50 (read off the curve)” value [11] is reported as roughly 2 nM, the Kd [12] is reported as 0.546 nM and the Kd [13] is reported as 0.0311 nM. The “LogIC50, IL-17A-induced GROα release by HT-29 cells, FIG. 8D (stable CHO pool, mouse PK lot)” value [2] was 0.406, the Kd [6] was 0.0575 nM and the koff [6] was 0.00013 s⁻¹. It also gave a kon [6] of 2.26e+06 M⁻¹ s⁻¹, a koff [14] of 7.97e-05 s⁻¹ and a kon [14] of 2.95e+06 M⁻¹ s⁻¹. The koff [15] was 0.00017 s⁻¹ and the kon [15] was 425000 M⁻¹ s⁻¹.
